This note sets out measurements from the supplement of paper PMC9446081.

Screen size: about 39,000 compounds; about 220 (0.56%) showed activity. This is one part of the list.
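Also: static incubation at 37 °C against the wild-type strain, values averaged over two biological replicates.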

This assay has as its system Escherichia coli K-12 BW25113. Description: relative growth (OD600 normalised to plate interquartile mean) (fraction); higher = less growth inhibition, active = 0.2 or less. Particulars: 50 µM; LB; incubation time: overnight (16-24 h).
In the case of `C[C@@H]1CN([C@H](C)CO)C(=O)Cc2cc(NS(=O)(=O)c3ccccc3)ccc2O[C@@H]1CN(C)S(=O)(=O)c1ccccc1`, the relative growth is inactive: 0.979.

As to `C[C@H]1CN([C@@H](C)CO)C(=O)CCCn2cc(nn2)CO[C@@H]1CN(C)Cc1cccc2c1OCCCO2`, the relative growth is inactive: 0.997. Turning to `C[C@H]1CCCCO[C@@H](CN(C)Cc2ccc3c(c2)OCO3)[C@@H](C)CN([C@@H](C)CO)C(=O)c2cc(NC(=O)Nc3ccccc3)ccc2O1`, the relative growth is inactive: 0.905. The value for `C[C@H]1CN([C@@H](C)CO)C(=O)c2cc(NC(=O)C3CCCCC3)ccc2O[C@H]1CN(C)Cc1ccc(Oc2ccccc2)cc1` was inactive: 1.

`C[C@@H]1CN([C@H](C)CO)C(=O)c2cccc(NC(=O)c3ccc(-c4nccs4)cc3)c2O[C@@H]1CN(C)Cc1ccc(-c2ccccc2)cc1`: the relative growth is inactive: 1. The value for `CCS(=O)(=O)N1CCn2cc(Cn3cncn3)nc2C1` was inactive: 1. As for `COc1ccc(NC(=O)Nc2ccc3c(c2)C(=O)N([C@H](C)CO)C[C@H](C)[C@H](CN(C)C(=O)Nc2ccc(C(F)(F)F)cc2)OCCCC[C@@H](C)O3)cc1`, the figure is inactive: 1.01; as for `COc1ccc(NC(=O)N(C)C[C@@H]2OCCCC[C@@H](C)Oc3ccc(NC(=O)Cc4ccccc4)cc3C(=O)N([C@@H](C)CO)C[C@@H]2C)cc1`, inactive: 0.994. In the case of `CCCC(=O)Nc1ccc2c(c1)OC[C@H](C)N(Cc1ccc(-c3ccccn3)cc1)C[C@@H](C)[C@@H](OC)CN(C)C2=O`, the relative growth is inactive: 1. As for `Cc1noc(C)c1NC(=O)Nc1ccc2c(c1)C(=O)N([C@H](C)CO)C[C@H](C)[C@@H](CN(C)C(=O)Nc1ccc(C(F)(F)F)cc1)OCCCC[C@@H](C)O2`, the figure is inactive: 0.965; as for `COc1ccc(S(=O)(=O)Nc2ccc3c(c2)C(=O)N(C)C[C@@H](OC)[C@H](C)CN(C)[C@H](C)CO3)cc1`, inactive: 0.994; as for `C[C@@H]1CN([C@H](C)CO)C(=O)c2cccc(NS(=O)(=O)c3cccs3)c2O[C@H]1CN(C)S(=O)(=O)c1ccccc1`, inactive: 1.02. As for `COc1ccc(CNC(=O)C[C@@H]2CC[C@@H]3[C@H](COc4ccc(NC(=O)C(C)C)cc4C(=O)N3C)O2)cc1`, the figure is inactive: 1.01; as for `C[C@H](CO)N1C[C@H](C)[C@@H](CN(C)Cc2ccc3c(c2)OCO3)Oc2ccc(NC(=O)c3ccncc3)cc2C1=O`, inactive: 0.956; as for `C[C@@H]1CN([C@H](C)CO)C(=O)Cc2cc(NC(=O)C3CCCCC3)ccc2O[C@@H]1CN(C)S(=O)(=O)c1cn(C)cn1`, inactive: 0.995. The value for `COc1ccnc(CS(=O)c2nc3cc(OC(F)F)ccc3[nH]2)c1OC` (stereo not given) was inactive: 1.04. In the case of `C[C@H]1CN([C@@H](C)CO)C(=O)c2cccc(NS(C)(=O)=O)c2O[C@H]1CN(C)S(=O)(=O)c1ccc(F)cc1`, the relative growth is inactive: 1.01. As for `C[C@H](CO)N1C[C@H](C)[C@@H](CN(C)Cc2ccc(Cl)c(Cl)c2)Oc2c(NC(=O)c3ccc(-c4nccs4)cc3)cccc2C1=O`, the relative growth is inactive: 1.02. Regarding `COc1ccc(NC(=O)N(C)C[C@H]2OCCCC[C@H](C)Oc3ccc(NS(=O)(=O)c4ccc(Cl)cc4)cc3C(=O)N([C@H](C)CO)C[C@@H]2C)cc1`, the relative growth is inactive: 1.01. Take `COc1ccc(S(=O)(=O)N(C)C[C@H]2Oc3ccc(NS(=O)(=O)c4ccccc4)cc3C(=O)N([C@@H](C)CO)C[C@@H]2C)cc1`: the relative growth is inactive: 1.01. The value for `C[C@@H]1CN([C@H](C)CO)C(=O)c2cc(NC(=O)Cc3ccccc3)ccc2O[C@H]1CN(C)Cc1ccc(C(F)(F)F)cc1` was inactive: 1.04; that for `N=C(N)NCCSC(=N)N` was inactive: 0.998; that for `Cc1ccc(S(=O)(=O)N2C[C@@H](O)COC[C@H]3O[C@H](CC(=O)NCc4ccc(F)c(F)c4)CC[C@@H]32)cc1` was inactive: 0.99. As for `Cc1cc(C(=O)Nc2cccc3c2O[C@H](CN(C)C(=O)Nc2c(C)noc2C)[C@H](C)CN([C@H](C)CO)C3=O)n(C)n1`, the figure is inactive: 0.941; as for `CN(C)CC(=O)N[C@H]1CC[C@@H](CC(=O)O)O[C@H]1CO`, inactive: 1.01. The value for `C[C@H]1CCCCO[C@H](CN(C)S(=O)(=O)c2ccc(Cl)cc2)[C@@H](C)CN([C@@H](C)CO)C(=O)c2cc(NC(=O)C3CCCCC3)ccc2O1` was inactive: 1; that for `C[C@@H]1CN([C@H](C)CO)C(=O)c2cccc(NC(=O)Nc3cccc4ccccc34)c2O[C@@H]1CN(C)C(=O)Nc1ccc(F)cc1` was inactive: 1.01; that for `O=C(C[C@@H]1CC[C@@H]2[C@H](COC[C@@H](O)CN2C(=O)Nc2cccc(Cl)c2)O1)NCc1ccccc1F` was inactive: 0.813. As to `CC1(C)CC[C@]2(C(=O)O[C@@H]3O[C@H](CO[C@@H]4O[C@H](CO)[C@@H](O)[C@H](O)[C@H]4O)[C@@H](O)[C@H](O)[C@H]3O)CC[C@]3(C)C(=CC[C@H]4[C@@]5(C)CC[C@H](O[C@@H]6OC[C@H](O)[C@H](O)[C@H]6O)C(C)(C)[C@@H]5CC[C@]43C)[C@@H]2C1`, the relative growth was inactive: 1.01. On to `C[C@H](CO)N1C[C@H](C)[C@H](CN(C)S(=O)(=O)c2ccc(C#N)cc2)Oc2ncc(C#CC(C)(C)O)cc2C1=O`, for which the relative growth is inactive: 0.994. The value for `O=C(/C=N/O)NCc1ccccn1` was inactive: 1; that for `Cc1ccc(S(=O)(=O)Nc2cccc3c2O[C@H](CN(C)Cc2ccc(C(F)(F)F)cc2)[C@@H](C)CN([C@H](C)CO)C3=O)cc1` was inactive: 1; that for `C[C@@H]1CCCCO[C@@H](CN(C)C(=O)Nc2ccccc2)[C@H](C)CN([C@@H](C)CO)C(=O)c2cc(NC(=O)Nc3ccc(C(F)(F)F)cc3)ccc2O1` was inactive: 1.04. With `C[C@@H]1CCCCO[C@@H](CN(C)S(=O)(=O)c2cccs2)[C@H](C)CN([C@@H](C)CO)C(=O)c2cc(NC(=O)Nc3ccc(F)cc3)ccc2O1`, the relative growth was inactive: 1.04. The value for `CC(=O)O[C@@H]1[C@@H](O[C@@H]2O[C@H](CO)[C@@H](O)[C@H](O)[C@H]2O)[C@@H](O)[C@H](OC[C@H]2O[C@@H](Oc3c(-c4ccc(O)c(O)c4)oc4cc(O)cc(O)c4c3=O)[C@H](O)[C@@H](O)[C@H]2O)O[C@H]1C` was inactive: 0.986; that for `C[C@H]1CN([C@@H](C)CO)C(=O)Cc2cc(NC(=O)CCN3CCOCC3)ccc2O[C@H]1CN(C)C(=O)NC1CCCCC1` was inactive: 1.04. As for `CNC(=O)C[C@@H]1CC[C@H]2[C@@H](COC[C@H](O)CN2C(=O)Nc2cccc(OC)c2)O1`, the figure is inactive: 0.983. The value for `C[C@@H]1CN([C@@H](C)CO)C(=O)Cc2cc(NS(=O)(=O)c3cn(C)cn3)ccc2O[C@@H]1CN(C)S(=O)(=O)c1ccccc1` was inactive: 1; that for `C[C@H](CO)N1C[C@H](C)[C@@H](CN(C)Cc2ccccc2)OCCCC[C@H](C)Oc2ccc(NC(=O)Nc3ccc4c(c3)OCO4)cc2C1=O` was inactive: 0.988; that for `O=C(C[C@@H]1CC[C@H]2[C@@H](COC[C@H](O)CN2Cc2ccccc2F)O1)N[C@@H]1CCN(Cc2ccccc2)C1` was inactive: 0.999. In the case of `C[C@@H]1CCCCO[C@@H](CN(C)C(=O)CCC(F)(F)F)[C@@H](C)CN([C@@H](C)CO)C(=O)c2cc(NC(=O)Nc3ccccc3)ccc2O1`, the relative growth is inactive: 1. The value for `Cc1ccc(S(=O)(=O)Nc2ccc3c(c2)CC(=O)N([C@H](C)CO)C[C@H](C)[C@H](CN(C)C(=O)Nc2cccc4ccccc24)O3)cc1` was inactive: 1; that for `CCOC(=O)C[C@@H](N)c1cccc(O)c1` was inactive: 0.999. As for `C[C@H](CO)N1C[C@H](C)[C@@H](CN(C)C(=O)C2CCCCC2)OCCCC[C@H](C)Oc2ccc(NS(=O)(=O)c3cccs3)cc2C1=O`, the figure is inactive: 1.

With `C[C@@H]1CN([C@H](C)CO)C(=O)c2cc(NC(=O)Nc3ccc4c(c3)OCO4)ccc2O[C@H]1CN(C)Cc1ccc(-c2ccccc2)cc1`, the relative growth was inactive: 1.04. As for `CCOC(=O)Nc1ccc(NCc2ccc(F)cc2)nc1N.O=C(O)C=CC(=O)O`, the figure is inactive: 0.989; as for `C[C@@H]1CCCCO[C@@H](CN(C)C(=O)Nc2ccc(F)cc2)[C@@H](C)CN([C@H](C)CO)C(=O)c2cc(NS(=O)(=O)c3ccc(F)cc3)ccc2O1`, inactive: 0.985. The value for `C[C@H]1CN([C@@H](C)CO)C(=O)c2cccc(NC(=O)c3ccc(-c4nccs4)cc3)c2O[C@@H]1CN(C)Cc1ccc(Oc2ccccc2)cc1` was inactive: 1.05; that for `C[C@@H]1CN([C@H](C)CO)C(=O)c2cc(NS(=O)(=O)c3cn(C)cn3)ccc2O[C@H]1CN(C)S(=O)(=O)c1ccccc1` was inactive: 1; that for `O=C(C[C@@H]1CC[C@H]2[C@@H](COC[C@H](O)CN2S(=O)(=O)c2cccnc2)O1)NCc1ccc(Cl)c(Cl)c1` was inactive: 0.992. On to `C[C@@H]1CCCCO[C@@H](CN(C)C(=O)Nc2ccc(F)cc2)[C@H](C)CN([C@@H](C)CO)C(=O)c2cc(NC(=O)Nc3cccc4ccccc34)ccc2O1`, for which the relative growth is inactive: 1.02. The value for `Cc1ccc(S(=O)(=O)N(C)C[C@@H]2Oc3ccc(NS(=O)(=O)c4cn(C)cn4)cc3C(=O)N([C@H](C)CO)C[C@H]2C)cc1` was inactive: 1.01. As for `C[C@@H]1CO[C@]2(O[C@H]3C[C@H]4[C@H]5C[C@H](O[C@H]6O[C@@H](C)[C@@H](O)[C@@H](O[C@@H]7O[C@@H](C)[C@H](O)[C@@H](O)[C@H]7O)[C@@H]6O)[C@H]6C[C@@H](O)CC[C@]6(C)[C@@H]5CC[C@]4(C)[C@H]3[C@@H]2C)[C@@H](O)C1`, the figure is inactive: 1.

On to `CCNC(=O)C[C@@H]1C=C[C@@H](NC(=O)C2CC2)[C@H](CO)O1`, for which the relative growth is inactive: 0.98. As for `C[C@@H]1CCCCO[C@@H](CN(C)CC2CC2)[C@@H](C)CN([C@H](C)CO)C(=O)c2cc(NC(=O)Cc3ccccc3)ccc2O1`, the figure is inactive: 0.966.
